Measurements from PMC6451091.
The list shows a part of the results. For some of these results: At the low end of the ranking, values are background and their order means little. For some of these results: The protein was read in a cell extract, so binding may be indirect.

What was measured:
Settings in all cases: 20 mM HEPES pH 7.9, 100 mM NaCl, 1 mM DTT, 0.2 mg/mL BSA, 0.02% Triton X-100, 2% milk, 0.4 mg/mL salmon testes DNA; 1 h; temperature not stated; high values mean tight binding; double strand, one strand shown; sequences stand for … in GCCTAGCAC…GTGCTAGGTCTTGATTCGCTTGACGCTGCTG
[1] = target: PU.1 (IVT) (UniProt P17947); assay: protein-binding microarray (PBM)
[2] = target: PU.1 (endogenous, THP-1 nuclear extract) (UniProt P17947); assay: nuclear extract protein-binding microarray (nextPBM)
[3] = target: T1, FLI1 (endogenous, THP-1 nuclear extract) (UniProt Q01543); assay: as above
T1 sequence: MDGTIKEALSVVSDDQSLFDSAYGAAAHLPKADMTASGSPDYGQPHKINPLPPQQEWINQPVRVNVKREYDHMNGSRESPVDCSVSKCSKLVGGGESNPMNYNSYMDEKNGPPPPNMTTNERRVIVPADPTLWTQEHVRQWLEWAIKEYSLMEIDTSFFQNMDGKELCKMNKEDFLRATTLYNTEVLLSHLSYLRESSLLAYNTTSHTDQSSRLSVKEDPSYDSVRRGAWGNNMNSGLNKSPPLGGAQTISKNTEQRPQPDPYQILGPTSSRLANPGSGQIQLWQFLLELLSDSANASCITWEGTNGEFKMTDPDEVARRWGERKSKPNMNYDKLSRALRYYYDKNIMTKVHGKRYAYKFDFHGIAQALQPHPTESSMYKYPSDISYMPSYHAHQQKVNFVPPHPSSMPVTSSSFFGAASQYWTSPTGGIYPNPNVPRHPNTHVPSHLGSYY

[4] = tested on: PU.1 (endogenous, THP-1 nuclear extract) + IRF8 (endogenous, THP-1 nuclear extract); assay: as above

Sequence | binding signal [1] [z-score] | binding signal [2] [z-score] | binding signal [3] [z-score] | binding signal [4] [z-score]
AATTAAAAATGAGCAAAAAA | 0.259 | -0.563 | -0.243 | -0.365
CATCCCTCTTAGGGGTCCAG | -0.466 | -0.15 | 0.0102 | 1.01
TGTATTTTTTACGGGGTTGA | -0.0847 | -0.193 | -0.513 | -1.81
ATCCAGCAAGAGAATAAAAT | 0.0846 | -0.266 | 0.24 | -0.862
TACAACAAAAACTACTATTC | 0.0289 | -0.347 | -0.066 | -0.0817
AACTTCCCTTTTCTCTTAAC | 8.26 | 6.83 | 3.91 | 1.67
CGGCCGCGAAGCAGAGCGGG | -0.727 | 0.198 | 0.439 | 1.53
CAGGGCACTGCGTGAAACCC | -0.663 | -0.584 | -0.877 | 1.9
GGGATTACAGGCGTGAGCCA | -0.773 | -0.629 | -0.442 | 0.232
AAATATCTCTTGCAATCAGA | -0.57 | -0.136 | -0.426 | -0.151
TTGCCGTGGCGACTGCGCGC | -0.873 | -0.223 | -0.213 | 0.506
GCTGCTCCCTCTTTTCTTCC | -0.412 | 0.0782 | 0.392 | 1.41
GTTGCCATTGTAAAGATAAT | -0.244 | -0.284 | -0.206 | 0.0666
CTGTGTTTTGAAATCATATT | 0.346 | -0.562 | 0.218 | -0.0514
TGACTCACAGACCAAGACTT | -0.867 | -0.286 | -0.555 | 0.976
TGAGTTATGATCATGCCACT | -0.682 | -0.381 | -0.523 | -0.345
CAGGAACAAGGAGCATGCTT | 0.599 | 0.579 | 0.145 | 0.364
TATACAGAGGAGAATAATTA | -0.122 | -0.096 | -0.418 | -0.138
CCACCCTCACTGCCTCTCTG | -0.603 | -0.188 | -0.145 | 2.54
GTCAGAATGAGATTAGTATT | 0.0803 | -0.442 | -0.664 | 0.0407
CTGCAGCCGTCTGCTGTATC | -0.933 | -0.143 | -0.6 | 1.25
AGAAGAACTGCGTGAAAGAA | -0.0383 | 0.124 | -0.495 | -0.0847
GGAGCATGGTACAAGAGACT | -0.821 | -0.43 | -0.676 | 0.00634
TGACATTGCAAACACATGGC | 0.159 | -0.375 | -0.462 | 0.0452
ACAAACAGAAGTTACCACTT | 1.14 | 0.891 | -0.42 | -1.72

Sequence | binding signal [1] [z-score] | binding signal [2] [z-score] | binding signal [3] [z-score] | binding signal [4] [z-score]
CCCCCAAACAGATGAGTAAG | -0.274 | -0.271 | 0.712 | -0.852
TTGAAAAAAAAAAAGAAGCT | 1.88 | 0.627 | -0.0215 | -1.5
TTGGGTGAAGTGTTCTGTAT | -0.0133 | -0.133 | 0.00434 | 2.39
TGTCACAGCTTGGAAACTAG | -0.278 | -0.309 | 0.0766 | 0.169
GCCCCCTCCAGTCCCCGCCC | 1.18 | -0.54 | -0.334 | -1.82
CAAAAGAAATTCCTCAGCCC | 0.123 | 0.0467 | -0.206 | -0.539
TTTAGGACAAAGGCAGCCCT | -0.0628 | -0.444 | -0.655 | -0.503
GGAGTATGGCAGAAGAACCA | 0.189 | -0.252 | -0.683 | -1.25
TGGCCCAGAGCCGCCAAGTT | -0.633 | -0.154 | -0.683 | -0.125
ATGGTGAGTCATCAGCATGC | -0.547 | -0.496 | -0.345 | 0.871
ACAGAAATTTTAGAAATATC | -0.111 | -0.74 | -0.233 | -0.0036
GTTGCTTGAAAAGAGAAGTG | 3.64 | 3.74 | 1.22 | -0.271
CCCCTGCCCGCTTTCTGGAG | -0.079 | -0.134 | 0.23 | -0.407
GTCATCTAAGGGGCCCTACG | -0.557 | -0.452 | -1.05 | 1.08
GGCATTGAGAGAAAATGGGC | -0.0833 | -0.501 | -0.305 | -1.53
ATAGTGCTTTCACACTGTGT | -0.163 | -0.196 | -0.48 | 1.88
GGGAGAGGCAGGAAGGAGCC | 0.643 | 0.709 | 2.42 | 0.506
GTTCCTGCCTAAACAGATTA | 0.42 | 0.26 | 0.271 | -0.572
TTTTTTTCTCAGTATTCTTT | -0.127 | -0.759 | -0.325 | -0.972
TGCAGGTCTGCGTGAAACTG | 0.213 | -0.0555 | 0.297 | 2.97
TAGTAGACTGCGTGAAAGCA | -0.205 | -0.45 | -0.647 | 0.112
CTAAGTTCAAATGTTAATTT | -0.511 | -0.433 | -0.706 | -0.858
AGCACTTTTAATTGGCAGAG | -0.105 | -0.326 | -0.0545 | -0.498
TCCCTTTTAAATTACTCATT | -0.454 | -0.489 | -0.115 | -0.919
